Measurements from PubChem BioAssay AID493208 (National Center for Advancing Translational Sciences (NCATS), 2011).
The whole screen tested about 44,000 compounds, of which about 340 (0.77%) were called active. About 5% were inconclusive and are not listed. Calls follow the shape of the dose curve; as a rule, active = well fitted inhibition curve with a large enough effect; inconclusive = small, poorly fitted or top-dose-only effect; inactive = flat fitted curve, though single readings scatter. The list shows a part of the results.

test: Acumen qHTS Assay for Inhibitors of the mTORC1 Signaling Pathway in MEF (Tsc2-/-, p53-/-) Cells: Sytravon; conditions: phospho-rpS6 immunofluorescence/PI, 24 h; series mostly up to 38.3 µM; activity change, negative = inhibition: at the top concentration;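 also: plate controls were DMSO for no effect and rapamycin for full effect; nearly all actives have a fitted effect of over 50% in size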
Summary of the method: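 Cell-based qHTS: Tsc2-/- p53-/- MEF, 24 h cpd, 37 °C; fix/perm, anti-phospho-S6 Alexa-488 + PI; Acumen 488 nm scan; pS6/PI ratio, % positive cells; rapamycin 7.5 nM = inhibition ref; PI count = viability.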

Activity change, negative = inhibition, inactive:
COc1ccc(NC(=O)CNC(=O)Cn2c(C)cc3ccccc3c2=O)c(OC)c1 5.08%
O=C(c1ccccc1)N1CCN(CCc2ccccn2)CC1 -0.875%
CCOc1ccc(-n2cc(-c3ccccc3)c3c(Nc4cccc(F)c4)ncnc32)cc1 9.14%
COc1cccc(C(=O)Nc2c(C(=O)Nc3ccc(F)cc3)oc3ccccc23)c1OC -0.37%
CCN(Cc1ccccc1)S(=O)(=O)c1cc(Br)cc2c1N(C(=O)C1CC1)CC2 1.25%
Cc1ccc(NC(=O)c2cnc(N3CCCC3)nc2C)cc1F 0%
CCOc1ccc(C(=O)Nc2nnc(SCc3cc(=O)n4ccccc4n3)s2)cc1 5.05%
CC(CNC(=O)CCn1c(=O)c2cccn2c2ccc(F)cc21)c1ccccc1 (stereo unspecified) -4.63%
CCOC(=O)c1ccccc1NC(=O)CSc1c(C)cnc2c1c(=O)n(C)c(=O)n2C -5.64%
Cc1nc2c(c(C)c1CCC(=O)N1CCN(c3ccccc3)CC1)c(=O)n(C)c(=O)n2C 0.861%
COc1ccc(C2C=C(c3ccccc3)Nc3nc(NS(=O)(=O)c4ccccc4)nn32)cc1 (stereo unspecified) 1.05%
O=C(Nc1cccc(Cl)c1Cl)c1cc(S(=O)(=O)N2CCCCC2)ccc1F 8.17%
COc1ccc(CCNC(=O)C2CC(=O)N(CCc3ccccc3)C2)cc1OC (stereo unspecified) -20.8%
CCCCN1CC(c2nc3ccccc3n2CCCCOc2ccccc2C)CC1=O (stereo unspecified) 2.64%
COc1ccc(OC)c(S(=O)(=O)NCCc2sc(-c3cccnc3)nc2C)c1 -0.909%
CC(=O)OC1=CN(Cc2ccccc2)S(=O)(=O)c2ccccc21 -1.17%
CCCN(Cc1cccs1)C(=O)Nc1cc(C)ccc1OC 0.292%
O=C(c1ccc2c(c1)N(Cc1ccc(Cl)cc1)C(=O)c1ccccc1S2(=O)=O)N1CCCCCC1 0.24%
CCc1nn(CC(=O)Nc2ccc(C)c(F)c2)c(=O)c2cc3cc(C)ccc3n12 -0.468%
COc1ccc(OC)c(CNC(=O)C2CCN(S(=O)(=O)N3CCCCC3)CC2)c1 6.67%
Cc1ccc(-c2onc(C)c2C)cc1S(=O)(=O)NCc1cccs1 -6.9%
COc1ccccc1N1CCN(c2nc3ccc(C(=O)c4ccccc4)cc3n3c(C)nnc23)CC1 1.13%
Cc1ccc(-c2cn3c(n2)sc2cc(C(=O)NCCC4=CCCCC4)ccc23)c(C)c1 -13.2%
CCOc1ccc(S(=O)(=O)NCC(c2ccc(N(C)C)cc2)N2CCCC2)cc1 (stereo unspecified) 0%
O=C(COc1ccc(F)cc1)Nc1ccc2nc(SCC(=O)N3CCCC3)sc2c1 0%
COc1ccccc1N1CCN(C2C(=O)c3ccccc3N2C(C)=O)CC1 (stereo unspecified) 3.9%
CCOc1ccc(-c2nnc(SCC(=O)Nc3ccccc3C(F)(F)F)o2)cc1 1.96%
Cc1ccc(N2C(=O)C(CC(=O)Nc3ccc(F)cc3)N(CCC3=CCCCC3)C2=O)cc1 (stereo unspecified) -6.91%
COCCCNC(=O)c1cn(CC(C)C)c(=O)c2c1c1ccccc1n2C 3.15%
COc1cc(OC)c(NS(=O)(=O)c2cc3c(cc2C)NC(=O)CO3)cc1Cl 5.45%
CC(=O)c1ccc(N2CCN(C(=O)C3CCN(S(=O)(=O)c4ccc(Br)s4)CC3)CC2)cc1 2.18%
COCCn1c(CNC(=O)c2cccc(N(C)C)c2)nc2cccnc21 -10%
CCN(Cc1ccccc1)C(=O)CCS(=O)(=O)c1cc2c(cc1Cl)NC(=O)CO2 4.16%
Cc1nc2scc(C)n2c(=O)c1S(=O)(=O)Nc1cccc(O)c1 -17.3%
CCOC(=O)c1ccc(CN(Cc2ccc(F)cc2)S(=O)(=O)c2ccc(F)cc2)cc1 7.14%
CCCOc1ccc(C2c3c(oc4ccccc4c3=O)C(=O)N2c2ccc(C)cn2)cc1OCC (stereo unspecified) -0.87%
CCOC(=O)c1c(C)[nH]c(C)c1S(=O)(=O)N1CCC(C(=O)N2CCN(c3cccc(C)c3)C(C)C2)CC1 (stereo unspecified) -3.16%
Cc1ccc(C)c(NC(=O)Nc2nnc(N(CC(C)C)CC(C)C)s2)c1 -0.78%
Cc1ccc(CCNC(=O)c2ccc3c(=O)n(-c4ccc(C)cc4)c(=O)[nH]c3c2)cc1 -5.03%
Cc1ccccc1S(=O)Cc1ccc(C(=O)NC2CCCCCC2)o1 (stereo unspecified) 1.6%
CCOc1cccc2sc(NC(=O)c3ccc(S(=O)(=O)N4CCCc5ccccc54)cc3)nc12 -6.85%
COc1ccc2oc(=O)c(-c3nc(-c4cc(OC)c(OC)c(OC)c4)no3)cc2c1 -3.75%
O=C(CNS(=O)(=O)c1cccs1)N1CCN(c2ccccc2Cl)CC1 3.55%
O=C(Cn1cc(SCc2cccc(F)c2)c2ccccc21)N1CCCC1 -19.5%
Cc1ccc(C(=O)Nc2ccc3nc(SCC(=O)N4CCc5ccccc54)sc3c2)cc1 -6.29%
Cc1ccc2c(CNCc3cccc(Cl)c3)c(C(=O)O)n(Cc3ccc(F)cc3Cl)c2c1 3.94%
Cc1cc2oc(C(=O)Nc3sc4c(c3C(=O)NCc3ccco3)CCC4)cc(=O)c2cc1C 1.96%
CSc1ccc(CNC(=O)CCn2ccc3cc(S(=O)(=O)N4CCC(C)CC4)ccc32)cc1 -16.4%
COc1ccc(N2CCN(C(=O)c3cnc(N4CCCC4)nc3C)CC2)cc1 19.6%
COc1ccccc1CNS(=O)(=O)c1ccc2[nH]c3c(c2c1)CCCCC3 -7.79%
CCC(Sc1nc2ccccc2c2nc(CCc3c(C)n[nH]c3C)nn12)C(=O)Nc1ccc(F)cc1 (stereo unspecified) -2.59%
CC1=C(c2ccc(C)cc2)S(=O)(=O)N(Cc2ccc(C(=O)NCc3cccc(C)c3)cc2)C1=O -3.74%
COc1cccc(-n2nnc3c(sc4nc(C)cc(C)c43)c2=O)c1 -0.787%
Cc1c(Cl)cccc1NC(=O)N1CCC(CN2CCCC2)CC1 -6.23%
COc1ccc(CCNC(=O)CN(c2ccccc2OC)S(=O)(=O)c2ccc(C)cc2)cc1 -16.2%
COC(=O)c1c(NC(=O)c2cc(=O)c3ccc(C)c(C)c3o2)sc2c1CCCC2 6.55%
O=C(Nc1sc2c(c1C(=O)Nc1ccccc1Cl)CCCC2)c1ccccc1F -23.2%
Cc1ccc(NC(=O)CSc2nc(C)c(Cc3ccccc3)c(=O)[nH]2)cc1 1.37%
COC(=O)c1ccc(NC(=O)CSc2nc3ccc(OC)cc3[nH]2)cc1 2.79%
O=C(NCc1ccccc1Br)C1CCCN(C(=O)N2CCOc3ccccc32)C1 (stereo unspecified) 3.76%
COCCCNC(=O)Cn1c(=O)n(Cc2ccc(C(=O)NCc3ccc(C)cc3)cc2)c(=O)c2ccccc21 -2.04%
